Reference: the supplement of paper PMC11181314
This is one part of the list. Single values of this set are uncertain.

Tested on: U2OS
Test: Cell Painting induction (percent of morphological features significantly changed vs DMSO); higher = stronger morphological change
Conditions: 10 µM, 20 h
Method: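 Cell Painting assay in U2OS cells: compounds at 10 µM for 20 h, six dyes, 579 robust CellProfiler features as Z-scores vs DMSO median (MAD). Induction is the % of significantly changed features (active if ≥5%); relative cell count is in % of DMSO. The primary run holds DCM compounds preselected for induction ≥10%; the confirmation repeat defines active compounds (370 of 549). Replicate agreement is low, attributed to precipitation.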

[1] = run: primary screen (compounds selected for induction >=10%)
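Also: stains mark DNA, RNA and nucleoli, ER, actin, Golgi, plasma membrane and mitochondria, read by high-content imaging, with DMSO controls at matching solvent concentration.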

Row | SMILES | Cell Painting induction (run: confirmation repeat) | Cell Painting induction [1] [%]
1 | CCOc1ccccc1N(C)C(=O)Cn1ncc2c3cc(C)ccc3nc-2c1O | active: 50.3% | 58.9
2 | Cc1cc2c(cc3c(=O)n(CC(=O)NCCCN4CC(C)CC(C)C4)ncn32)s1 (stereo not given) | inactive: 0.7% | 14.7
3 | COc1cc(OC)c(NC(=O)C2CCN(S(=O)(=O)c3ccc4c(c3)CC(C)N4C(C)=O)CC2)cc1Cl (stereo not given) | active: 8.1% | 15.5
4 | Clc1cccc(-n2nc(-c3ccccc3)c3cnc4cc5c(cc4c32)OCCO5)c1 | inactive: 0.2% | 10
5 | CSc1cccc(NC(=O)c2cc(S(=O)(=O)N3CCCC3)cn2C)c1 | active: 7.4% | 17.1
6 | Cc1ccc(NC(=O)C2CCCN(S(=O)(=O)c3c(C)noc3/C=C/N(C)C)C2)c(C)c1 (stereo not given) | inactive: 1.4% | 15.9
7 | CC(C)c1ccc(NC(=O)C2CCN(S(=O)(=O)c3ccc4c(c3)C(C)(C)C(=O)N4C)CC2)cc1 | active: 27.6% | 42.7
8 | Cc1ccc(NC(=O)CSc2nc3ccccc3nc2N2CCOCC2)c(C)c1 | active: 8.8% | 19.9
9 | CCc1ccc(NC(=O)CN(c2ccc(OC)cc2)S(=O)(=O)c2c(C)nn(C)c2C)cc1 | active: 7.4% | 25.4
10 | O=C(Cn1ncc2c([nH]c3ccccc32)c1=O)NCCCN1CCN(c2ccccc2)CC1 | active: 18.8% | 29.9
11 | CCOc1ccc(Oc2nc(Nc3ccc(C)cc3)nc(N(C)C)n2)nn1 | inactive: 4.5% | 11.1
12 | CN(CCNC(=O)C1CCCN(c2ncnc3c2nc2n3CCCCC2)C1)Cc1ccccc1 (stereo not given) | active: 16.4% | 20.9
13 | CCN(CC)CCNC(=O)c1ccc(Sc2ccc(C)cc2)c(NC(C)=O)c1 | active: 8.8% | 13.8
14 | Cc1cc(NC(=O)c2cccc3c2C(=O)N(C2CCCCC2)C3)ccc1Br | inactive: 0.2% | 15.4
15 | CCOc1cc2[nH]c(=S)n(Cc3ccc(C(=O)NCCOC)cc3)c(=O)c2cc1OCC | active: 20.7% | 25.9
16 | Cc1ccc(/C=C2/Sc3ccc(C(=O)NCCN4CCOCC4)cc3NC2=O)cc1 | active: 15.4% | 45.6
17 | O=C(c1cnn2c(C(F)F)cc(-c3ccccc3)nc12)N1CCCCC1c1cccnc1 (stereo not given) | active: 20.4% | 13.3
18 | COc1ccccc1CCNC(=O)CCCn1nc(C)c2c(C)n(-c3ccc(C)cc3)nc2c1=O | active: 17.4% | 11.1

Row | SMILES | Cell Painting induction (run: confirmation repeat) | Cell Painting induction [1] [%]
19 | CCN1CCCc2cc(CN(CCN3CCOCC3)C(=S)Nc3cccc(Cl)c3)ccc21 | active: 24% | 29.2
20 | Cc1cccn2c(=O)c3cc(C(=O)NC4CCCCC4)n(C)c3nc12 | inactive: 1% | 32.8
21 | CCCN(C(=O)Cn1ncc2c3ccccc3nc-2c1O)c1ccccc1C | active: 7.9% | 15.7
22 | COc1ccccc1NC(=O)c1cnc2c(-c3ccccc3)c(C)nn2c1C | active: 7.6% | 15.5
23 | CCc1cccc(NC(=S)N(CCN(C)C)C2CCN(C(C)C)CC2)c1 | inactive: 0% | 51.5
24 | Cc1ccc(Cn2cccc2/C=N/NC(=S)Nc2ccc(C)cc2)cc1 | active: 38% | 40.6
25 | COc1ccc(/C=N/NC(=O)c2cccnc2)cc1CN1CCc2cc(OC)c(OC)cc2C1C (stereo not given) | active: 24.7% | 22.8
26 | Cc1ccc(/C=C/c2onc(C)c2S(=O)(=O)N2CCC(C(=O)N3CCCCC3)CC2)cc1 | active: 34.2% | 32
27 | CC(=O)Nc1ccc(NC(=O)C2CCC(CNS(=O)(=O)c3cccc4nsnc34)CC2)cc1 (stereo not given) | active: 11.4% | 13.8
28 | COc1ccc(CNc2ncc(-c3ccc(Br)cc3)n2C)cc1OC | inactive: 4.5% | 25.9
29 | O=S(=O)(c1ccc(Cl)cc1)c1cnc2ccccc2c1N1CCCCC1 | inactive: 2.8% | 21.6
30 | Cc1sc2ncn(CC(=O)NCCCN3CC(C)CC(C)C3)c(=O)c2c1S(=O)(=O)N1CC(C)CC(C)C1 (stereo not given) | active: 66.7% | 57.9
31 | CN(C(=O)c1ccc2c(=O)n3c(nc2c1)CCCCC3)c1ccccc1Cl | active: 15.9% | 21.1
32 | CCc1cccc(C)c1NC(=S)N(CCCN1CCN(C)CC1)Cc1cccs1 | active: 22.6% | 17.4
33 | Cc1ccc(OCC(=O)Nc2ccccc2C(N)=O)c(C(C)(C)C)c1 | active: 15.2% | 10.4
34 | CC(C)c1ccc(NC(=O)Cn2cc(C(=O)c3ccccc3)c(=O)c3cc(Cl)ccc32)cc1 | active: 13.1% | 10.9
35 | COc1cccc(CNS(=O)(=O)c2cc(-c3cc(C)no3)ccc2C(C)C)c1 | active: 40.8% | 35.1
